Data published in a compilation of properties of binary mixtures (doi:10.1016/j.jct.2020.106366).
The densities may have been worked out from excess volumes.

Experiment: xn = mol fraction of the nth substance listed
Conditions: 100 kPa

CCCC[n+]1ccccc1.O=C([O-])C(F)(F)F + O
mass density [kg/m3]
Conditions | x1 = 0.8635 | x1 = 0.8873 | x1 = 0.8962 | x1 = 0.917 | x1 = 0.9289 | x1 = 0.9691
293.15 K | 1339.1 | 1343 | 1344.5 | 1347.8 | 1349.7 | 1355.6
298.15 K | 1334.4 | – | 1340 | – | 1345.3 | 1351.4
303.15 K | 1330.6 | 1334.7 | 1336.1 | 1339.5 | – | 1347.3
308.15 K | 1327.7 | 1330.8 | 1332.6 | 1335.9 | 1338 | 1343.7
313.15 K | 1322.3 | 1326.2 | – | 1331.1 | 1333 | 1339
318.15 K | 1318.5 | – | – | 1327.1 | 1329.1 | 1334.9
323.15 K | 1314.5 | – | 1319.7 | 1323.1 | 1325.2 | 1330.9
328.15 K | 1310.3 | 1314.1 | 1315.9 | 1319.2 | – | 1326.9
333.15 K | 1306.1 | 1310 | 1311.7 | 1315 | 1317 | 1322.7
338.15 K | 1302.1 | 1305.7 | 1307.3 | 1310.8 | 1312.7 | –
343.15 K | 1297.5 | – | 1303.3 | – | 1308.6 | 1314.3

CCCCC[n+]1ccccc1.O=C([O-])C(F)(F)F + O
mass density [kg/m3]
Conditions | x1 = 0.8375 | x1 = 0.8691 | x1 = 0.8805 | x1 = 0.9227 | x1 = 0.9446 | x1 = 0.9743
293.15 K | 1313.6 | 1315.1 | 1315.8 | 1318.3 | 1319.9 | 1321.4
298.15 K | 1310.6 | 1312.4 | – | 1315.3 | 1316.2 | 1317.6
303.15 K | 1306 | 1307.4 | 1308.1 | – | – | 1313.4
308.15 K | 1301.7 | 1303.3 | 1304.1 | 1306.2 | – | 1309.4
313.15 K | – | 1299.3 | 1299.9 | 1302.5 | 1303.6 | 1305.2
318.15 K | 1293.8 | 1295.2 | 1295.9 | 1298.4 | 1300 | 1301.5
323.15 K | 1289.9 | – | 1292 | 1294.4 | – | 1297.2
328.15 K | 1284.9 | – | 1287.5 | 1289.9 | 1291.3 | 1292.7
333.15 K | 1280.8 | – | 1283.2 | 1285.7 | – | 1288.8
338.15 K | 1277.2 | 1279 | 1279.6 | 1282 | – | 1284.8
343.15 K | – | 1274.6 | – | 1277.7 | 1279.1 | 1280.7
